For four substances, binding results are on record in PMC6744515.

By UniProt entry, the sequences of proteins in these tests, tags left out. Where a name states a change or a piece, a line headed by the entry shows the natural chain unless it says otherwise.
UniProt O35625: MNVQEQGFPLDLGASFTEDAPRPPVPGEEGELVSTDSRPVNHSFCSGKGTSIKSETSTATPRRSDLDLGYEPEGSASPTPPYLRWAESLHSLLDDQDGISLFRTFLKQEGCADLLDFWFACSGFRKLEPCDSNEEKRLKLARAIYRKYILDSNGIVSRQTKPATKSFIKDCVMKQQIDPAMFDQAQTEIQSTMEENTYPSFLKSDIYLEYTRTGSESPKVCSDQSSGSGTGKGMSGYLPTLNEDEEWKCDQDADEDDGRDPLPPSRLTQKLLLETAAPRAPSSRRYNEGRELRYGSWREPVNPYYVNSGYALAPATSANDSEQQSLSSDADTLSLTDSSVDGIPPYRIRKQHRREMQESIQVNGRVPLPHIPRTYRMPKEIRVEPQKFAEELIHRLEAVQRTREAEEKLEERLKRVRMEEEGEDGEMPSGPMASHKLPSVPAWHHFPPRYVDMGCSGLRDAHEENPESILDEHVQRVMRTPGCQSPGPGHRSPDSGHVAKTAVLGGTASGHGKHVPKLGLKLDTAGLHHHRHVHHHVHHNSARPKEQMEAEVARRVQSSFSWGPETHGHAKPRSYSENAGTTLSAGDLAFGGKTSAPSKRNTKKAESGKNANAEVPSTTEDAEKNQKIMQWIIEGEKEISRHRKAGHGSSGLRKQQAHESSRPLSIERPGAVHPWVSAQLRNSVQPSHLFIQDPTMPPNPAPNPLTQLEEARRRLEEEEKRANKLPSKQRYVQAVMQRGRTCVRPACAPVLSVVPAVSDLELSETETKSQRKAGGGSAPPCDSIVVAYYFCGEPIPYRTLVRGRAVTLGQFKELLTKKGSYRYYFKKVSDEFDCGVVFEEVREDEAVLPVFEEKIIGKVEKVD
UniProt Q93009: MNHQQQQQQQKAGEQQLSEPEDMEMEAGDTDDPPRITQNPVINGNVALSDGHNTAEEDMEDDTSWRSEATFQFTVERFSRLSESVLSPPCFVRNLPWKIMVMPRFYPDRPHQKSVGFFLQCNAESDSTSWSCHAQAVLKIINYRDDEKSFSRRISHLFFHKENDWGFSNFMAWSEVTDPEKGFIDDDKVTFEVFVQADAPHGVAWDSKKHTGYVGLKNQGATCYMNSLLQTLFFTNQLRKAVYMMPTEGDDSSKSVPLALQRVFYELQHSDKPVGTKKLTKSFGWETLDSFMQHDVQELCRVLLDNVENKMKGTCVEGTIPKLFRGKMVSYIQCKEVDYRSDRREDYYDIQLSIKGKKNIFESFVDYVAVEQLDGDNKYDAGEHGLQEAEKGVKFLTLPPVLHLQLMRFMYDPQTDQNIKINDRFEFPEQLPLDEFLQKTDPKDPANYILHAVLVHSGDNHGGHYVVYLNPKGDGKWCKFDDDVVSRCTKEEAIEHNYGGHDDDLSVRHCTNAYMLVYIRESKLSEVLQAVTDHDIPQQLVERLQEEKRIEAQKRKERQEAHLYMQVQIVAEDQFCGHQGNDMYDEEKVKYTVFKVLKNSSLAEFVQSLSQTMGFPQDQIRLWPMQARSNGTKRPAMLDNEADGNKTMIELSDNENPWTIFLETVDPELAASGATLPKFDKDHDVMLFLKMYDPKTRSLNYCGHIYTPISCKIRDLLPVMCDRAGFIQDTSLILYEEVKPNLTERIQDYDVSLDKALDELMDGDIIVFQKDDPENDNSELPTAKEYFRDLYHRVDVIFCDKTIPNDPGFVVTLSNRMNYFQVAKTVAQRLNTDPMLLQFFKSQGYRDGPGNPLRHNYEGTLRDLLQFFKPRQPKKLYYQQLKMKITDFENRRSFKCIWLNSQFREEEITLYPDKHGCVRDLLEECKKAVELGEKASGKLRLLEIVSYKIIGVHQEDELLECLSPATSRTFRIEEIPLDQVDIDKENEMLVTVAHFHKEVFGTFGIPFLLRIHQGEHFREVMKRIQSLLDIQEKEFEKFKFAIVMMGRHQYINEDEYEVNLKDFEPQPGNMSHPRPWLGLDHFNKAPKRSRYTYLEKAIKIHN
UniProt O15169: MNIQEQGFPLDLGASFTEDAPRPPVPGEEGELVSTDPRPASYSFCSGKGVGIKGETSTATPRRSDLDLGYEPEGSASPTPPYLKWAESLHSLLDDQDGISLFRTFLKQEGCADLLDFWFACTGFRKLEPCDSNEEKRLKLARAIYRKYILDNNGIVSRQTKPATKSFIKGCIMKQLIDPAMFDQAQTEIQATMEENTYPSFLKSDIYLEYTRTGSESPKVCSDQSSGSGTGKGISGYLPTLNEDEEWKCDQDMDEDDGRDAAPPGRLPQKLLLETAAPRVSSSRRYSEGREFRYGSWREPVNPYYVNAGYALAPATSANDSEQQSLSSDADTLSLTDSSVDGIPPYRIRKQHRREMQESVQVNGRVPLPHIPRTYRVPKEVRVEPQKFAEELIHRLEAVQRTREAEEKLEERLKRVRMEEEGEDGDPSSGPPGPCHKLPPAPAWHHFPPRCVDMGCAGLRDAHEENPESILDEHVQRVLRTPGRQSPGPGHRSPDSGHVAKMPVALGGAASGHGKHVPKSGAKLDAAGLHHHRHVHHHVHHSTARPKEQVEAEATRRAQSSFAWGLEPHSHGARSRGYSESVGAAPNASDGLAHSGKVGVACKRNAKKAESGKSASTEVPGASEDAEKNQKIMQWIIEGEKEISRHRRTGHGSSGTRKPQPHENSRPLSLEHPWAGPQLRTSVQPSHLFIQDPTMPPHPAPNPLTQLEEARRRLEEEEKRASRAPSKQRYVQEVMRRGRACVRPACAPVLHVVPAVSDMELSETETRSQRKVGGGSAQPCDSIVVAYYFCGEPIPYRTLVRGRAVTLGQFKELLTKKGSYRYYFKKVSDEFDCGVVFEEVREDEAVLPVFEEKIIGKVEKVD

Assay [1] concerns the target His-SUMO tagged full-length Axin1 (a.a. 1–863) (UniProt O35625). In words: pull-down; Ni-NTA pulldown: purified His-SUMO-Axin1 with cell lysates containing ectopically expressed Myc-USP7; only the target purified.
In a further assay the target is Myc-USP7 (wild type) (UniProt Q93009). Nature of the assay: co-IP; ectopically expressed tagged proteins; cleared NP40 lysates incubated with anti-Myc tag magnetic beads 2 h at 4 °C, washed three times with lysis buffer, immunoblot.
A further assay addresses Myc-USP7 C223A (UniProt Q93009). The assay is described as above.
The target in the next assay is Myc-USP7 W165A (UniProt Q93009). The description is as above.
Assay [2] addresses endogenous USP7 (human (endogenous in HEK293T)) (UniProt Q93009). In words: co-IP; endogenous proteins in HEK293T lysate; USP7 antibody or normal rabbit IgG overnight, magnetic Protein A beads 2 h at 4 °C, immunoblot. (In western blotting, separated proteins are transferred to a membrane and probed.)

Results are given in words; binding and its absence hold for the method and conditions named. Binding seen in cells or lysates may run through a third protein. Some results given as binding are weak or reduced against the parent protein; the word gives no strength.

For “Myc-USP7 W165A (from UniProt Q93009 1-1102) (enzyme)”, in assay [1], the binding entry was “no binding”.
As to Flag-Axin1 (from UniProt O35625 1-863), the binding result with Myc-USP7 (wild type) is “binds”; with Myc-USP7 C223A, “binds”; with Myc-USP7 W165A, “no binding”.
As to “endogenous AXIN1 (from UniProt O15169 1-862)”, in assay [2], the binding result is on record as “binds”.
On to “Myc-USP7 (wild type) (from UniProt Q93009 1-1102) (enzyme)”, for which the binding entry in assay [1] was “binds”.
